# Measurements published in PubChem BioAssay AID1745853 (National Center for Advancing Translational Sciences (NCATS), 2022).
# Several values for one entry are separate records, joined by “and”; a condition that tells them apart may be missing. Identical values can stand only once. The list shows a part of the results. The main result of the screen is listed elsewhere. These columns were measured beside it and carry no call.
# How the values were obtained:
# Assay in all cases: Primary Screen for Target Class Profiling of Small Molecule Inhibitors of Methyltransferases
# [1] = target: Glycine N-methyltransferase (Homo sapiens) (UniProt Q14749); conditions: purified enzyme, MTase-Glo SAH luminescence; measured here: GNMT inhibition; at 40 µM; stronger effect = lower value
# Method in brief: (§1)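 Each enzyme was reacted with SAM and its substrate, with compounds tested once at 40 uM; SAH formed was read by MTase-Glo luminescence.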
# [2] = target: Guanidinoacetate N-methyltransferase (Homo sapiens) (UniProt Q14353); conditions: purified enzyme, MTase-Glo SAH luminescence; measured here: GAMT inhibition; at 40 µM; stronger effect = lower value
# Method in brief: as §1
# [3] = target: Histamine N-methyltransferase (Homo sapiens) (UniProt P50135); conditions: purified enzyme, MTase-Glo SAH luminescence; measured here: HNMT inhibition; at 40 µM; stronger effect = lower value
# Method in brief: as §1
# [4] = target: Nicotinamide N-methyltransferase (Homo sapiens) (UniProt P40261); conditions: purified enzyme, MTase-Glo SAH luminescence; measured here: NNMT inhibition; at 40 µM; stronger effect = lower value
# Method in brief: as §1
# [5] = target: Phenylethanolamine N-methyltransferase (Homo sapiens) (UniProt P11086); conditions: purified enzyme, MTase-Glo SAH luminescence; measured here: PNMT inhibition; at 40 µM; stronger effect = lower value
# Method in brief: as §1
# % is set by controls: 0 for no effect and ±100 for the full control effect.
Structure (SMILES),"activity change, negative = inhibition [1]","activity change, negative = inhibition [2]","activity change, negative = inhibition [3]","activity change, negative = inhibition [4]","activity change, negative = inhibition [5]"
C=CCn1c(=O)c2ccc(C(=O)NCC(C)C)cc2n2c(=O)n(CC(=O)NC(C)C)nc12,5.21%,0%,0.618%,7.04%,7.18%
CCCn1c(=O)c2ccc(C(=O)NC(C)C)cc2n2c(=O)n(CC(=O)Nc3ccc(F)cc3)nc12,-0.54%,4.59%,-0.159%,-2.53%,2.48%
O=C(Cc1ccncc1)N1CC(F)(F)C[C@H]1c1nc(C2CC2)no1,-2.85%,-3.14%,0.333%,-8.61%,-17%
O=C(Nc1ccccc1F)C1CCCN(Cc2cccc(-c3cccs3)c2)C1 (stereo not drawn),-7.72%,-10.5%,-5.58%,-15.1%,-8.53%
O=C1C[C@@H](c2ccc(O)cc2)Oc2cc(O)ccc21,2.84%,5.02%,11.2%,-10.5%,3.43%
O=C(CCc1nnc2n(Cc3ccc(Cl)cc3)c(=O)c3ccccc3n12)N1CCN(c2ccc(F)cc2)CC1,3.06%,3.29%,0.156%,-9.19%,-1.28%
O=C(c1ccc(Nc2nccc(-c3cc4ccccc4s3)n2)cc1)N1CCC(N2CCCC2)CC1,-72.2%,8.19%,-58.9%,-25.5%,-13.6%
CC(C)c1nc2ccccc2n1CC(=O)N1CC[C@](C)(O)[C@@H](O)C1,-3.3%,-3.01%,-1.1%,-8.3%,-9.26%
CN(C)S(=O)(=O)N1CCC2(CCC(=O)N(CC3CC3)CC2)CC1,0.528%,4.26%,0.62%,-5.62%,13.8%
COc1ccccc1/C=C/CN1CCC(n2cc(CN(C)C)nn2)CC1,-5.28%,-13.1%,-8.18%,-15.2%,-15%
Cc1ccc(C)c(N2C(=O)CSc3c(c4ccccc4n3C)C2C(=O)NCCCOC(C)C)c1 (stereo not drawn),-9.23%,3.9%,0.58%,0.538%,0.004%
COc1ccc(-c2c(C)nn3c(NCCN4CCOCC4)cc(C)nc23)cc1OC,-4.58%,6.34%,6.38%,-6.61%,5.31%
CCn1c(CN2CCN(c3nc4ccccc4s3)CC2)nnc1C1CC(N)C1 (stereo not drawn),-3.81%,-0.843%,-2.7%,2.16%,-7.63%
CC(C)CNC(=O)c1ccc2c(=O)n(C(C)C)c3nn(CC(=O)Nc4ccc(F)cc4)c(=O)n3c2c1,6.92%,0%,11.5%,1.74%,6.87%
O=C(Nc1cccc(Nc2nccc(Nc3cccc(C(F)(F)F)c3)n2)c1)C1CC1,–,-1.34%,–,-43%,-23.5%
Cc1ccc2occ(-c3cc(-c4ccc(F)cc4)nc4c3COc3ccc(F)cc3-4)c(=O)c2c1,–,-9.4%,–,-19.7%,-4.71%
Cc1nn(-c2ccccc2)c(C)c1/C=N/N1CCN(Cc2ccccc2)CC1,-8.51% and -11.5%,-6.76% and 3.78%,2.77% and 0.769%,-13% and -8.08%,-4.81% and 2.74%
C=C1C(=C/C=C2\CCC[C@]3(C)[C@@H]([C@H](C)/C=C/[C@@H](O)C4CC4)CC[C@@H]23)C[C@@H](O)C[C@@H]1O,–,-15.7%,–,-25.1%,-6.1%
Nc1ncnc2c1ncn2[C@@H]1O[C@H](CO)[C@@H](O)[C@H]1O,169%,104%,32%,39.4%,-27.6%
Fc1ccc(-c2noc([C@@H]3Cc4nc[nH]c4CN3CCCc3ccccc3)n2)cc1Cl,-10.9%,-4.07%,-12.9%,-9.97%,-6.82%

Structure (SMILES),"activity change, negative = inhibition [1]","activity change, negative = inhibition [2]","activity change, negative = inhibition [3]","activity change, negative = inhibition [4]","activity change, negative = inhibition [5]"
O=S(=O)(Cc1ccccc1)N[C@H]1CO[C@H]2[C@@H]1OC[C@@H]2Nc1nccc(-c2cccc(F)c2)n1,-26.7%,-9.08%,-4.44%,-18.5%,-8.34%
CC1CCC2C(C)(C)C(O)CCC2(C)C12Cc1c(O)cc3c(c1O2)CN=C3N (stereo not drawn),-0.659%,-1.5%,6.26%,-23.1%,1.4%
Cc1nc(N2CCC(C(=O)NCC3CCCO3)CC2)cc(C(F)(F)F)n1 (stereo not drawn),-0.176%,-3.12%,-1.54%,-1.62%,1.82%
CC1(C)S[C@H]2[C@H](NC(=O)[C@@H](N)c3ccc(O)cc3)C(=O)N2[C@H]1C(=O)O,–,5.41%,–,-9.47%,0.129%
CC(=O)NC1C(OC(C)(C)C2CCC3(C)C=C(C4CCC5C4(C)CC(O)C4OC(C(C)(C)O)CCC45C)CCC3O2)OC(CO)C(O)C1O (stereo not drawn),-6.26%,15.2%,7.92%,-0.331%,-4.87%
Cc1ccc(NC(=O)CCc2nnc3n(Cc4ccccc4)c(=O)c4ccccc4n23)cc1C,-5.48%,1.45%,3.79%,6.86%,-0.255%
CC(C)NC(=O)c1ccc2c(=O)n(C3CC3)c3nn(CC(=O)Nc4cccc(Cl)c4)c(=O)n3c2c1,-1.32%,4.09%,3.35%,-2.97%,1.32%
CC1(C(=O)NC2CCCCC2)Cn2c(ccc2-c2ccco2)C(=O)N1CCc1ccc(Cl)cc1 (stereo not drawn),-21.3%,-7.06%,-0.53%,-16.8%,-9.47%
Cc1ccccc1CNC(=O)C1(C)Cc2ccccc2C(=O)N1Cc1cccc(F)c1 (stereo not drawn),5.62%,0%,10.6%,-4.86%,5.89%
CCCn1c(=O)c2ccc(C(=O)NC(C)CC)cc2n2c(SCC(=O)NC(C)(C)C)nnc12 (stereo not drawn),5.29%,0%,9.05%,-2.45%,2.97%
CC(C)OCCCNC(=O)c1cc2n(n1)CC(C)(C(=O)NCc1ccc(F)cc1)N(C)C2=O (stereo not drawn),-1.9%,-0.242%,-2.27%,-3.04%,-0.83%
CCCN1C(=O)c2c(C(=O)NCc3ccc(OC)cc3OC)ncn2CC1(C)C(=O)NC1CCCC1 (stereo not drawn),-0.91%,0.508%,1.17%,-2.28%,6.12%
CCN1C(=O)c2cc3ccccc3n2CC1(C)C(=O)NCC(=O)NCc1ccc(OC)cc1 (stereo not drawn),3.18%,0%,7.21%,-0.848%,2.87%
Cc1cc2c(cc3n2CC(C)(C(=O)NC2CCCCCC2)N(Cc2ccc4c(c2)OCO4)C3=O)o1 (stereo not drawn),5.28%,2.37%,7.13%,5.36%,4.73%
CCNc1ncnc2sc3c(c12)CCN(Cc1ccncc1)C3,-16.1%,-9.84%,-22.7%,-24.3%,-11.7%
CC(=O)Nc1c2n(c3ccc(F)cc13)CC(C)(C(=O)NC1CCCCC1)N(CCC(C)C)C2=O (stereo not drawn),-6.41%,-3.06%,-0.171%,-7.39%,-5.44%
Cc1cccc(NC(=O)N2CCn3c(C)ccc3C2C(C)C)c1 (stereo not drawn),7.36%,0%,-2.1%,-0.954%,1.19%
CSC(=O)OCC1=C[C@@H]2OC(=O)C3=CO[C@@H](O[C@@H]4O[C@H](CO)[C@@H](O)[C@H](O)[C@H]4O)[C@H]1[C@@H]32,1.22%,4.42%,5.47%,-6.2%,1.04%
COc1cccc(CNC(=O)c2cc3n(n2)CC(C)(C(=O)NCCC(C)C)N(C)C3=O)c1 (stereo not drawn),9.12%,0%,11.4%,1.23%,8.12%
CCCn1cc(-c2ccnc(NC3CCN(Cc4cccnc4)CC3)n2)c(C)n1,-6.83%,-3.71%,-37.2%,-8.67%,7.23%

Structure (SMILES),"activity change, negative = inhibition [1]","activity change, negative = inhibition [2]","activity change, negative = inhibition [3]","activity change, negative = inhibition [4]","activity change, negative = inhibition [5]"
N[C@@H](Cc1cc(I)c(Oc2cc(I)c(O)c(I)c2)c(I)c1)C(=O)O,-16.2%,-45.8%,-7.8%,-72.7%,-20.9%
CN(CCC1CCOCC1)C(=O)c1ccc(OC2CCN(C(=O)C3CC3)CC2)cc1,-3.22%,-7.2%,-2.51%,-7.31%,-5.74%
Cc1cccc(N2C(=O)c3cc(-c4ccco4)nn3CC2(C)C(=O)NC2CCCCC2)c1C (stereo not drawn),3.78%,0%,3.21%,8.08%,1.32%
CN(C)CC(=O)N1CCC[C@@H](n2nc(-c3ccc(Oc4ccccc4)cc3)c3c(N)ncnc32)C1,–,16.9%,–,-33.8%,-3.91%
CC(=O)OCC1=C[C@H](O)[C@@H]2C(C(=O)O)=CO[C@@H](O[C@@H]3O[C@H](CO)[C@@H](O)[C@H](O)[C@H]3O)[C@H]12,4.58%,2.38%,7.47%,-8.24%,2.31%
COc1cc(C(=O)O)ccc1NC(=O)[C@@H]1N[C@@H](CC(C)(C)C)[C@](C#N)(c2ccc(Cl)cc2F)[C@H]1c1cccc(Cl)c1F,–,-26.4%,–,-78.5%,-3.98%
CC1(C)CC2C(O)C3=C(CC(C)(O)C2C1)C(=O)OC3 (stereo not drawn),0%,9.84%,9.29%,-1.88%,7.13%
O=C(NC1CC(c2nnc(CO)n2C2CC2)C1)c1ccc2c(c1)CCO2 (stereo not drawn),-2.31%,-5.45%,-1.17%,-11.4%,-1.89%
CCC(C)CNCC(=O)N1CCC2SC=CC2C1COc1cccc(C)c1 (stereo not drawn),2.62%,5.34%,2.5%,-16.8%,0.903%
CCN(CC)CCCN1C(=O)c2ccc(-c3ccco3)n2CC1(C)C(=O)NC1CCCCC1 (stereo not drawn),1.8%,4.24%,-0.971%,4.53%,1.94%
CCCCCCN(CCC(=O)NCCc1ccccc1)C(=O)c1cc(C)oc1C,-11.8%,1.32%,-3.5%,-11.6%,6.6%
CC(=O)Nc1c2n(c3ccccc13)CC(C)(C(=O)NCCC(C)C)N(Cc1ccccc1C)C2=O (stereo not drawn),3.91%,0.761%,-0.998%,5.75%,2.42%
Cc1cc(C)cc(NC(=O)Cn2nc3n(CCC(C)C)c(=O)c4ccccc4n3c2=O)c1,4.42%,1.34%,6.82%,5.27%,3.78%
CCOC(=O)c1cc2n(n1)CC(C)(C(=O)NC1CCCCC1)N(c1ccc(OC)cc1OC)C2=O (stereo not drawn),-7.98%,-3.82%,-12.4%,-24.7%,-4.75%
CC(C(=O)N1CCN(c2cc(-c3ccccc3)[nH]n2)CC1)c1ccccc1 (stereo not drawn),-6.59%,-4.49%,-1.53%,-3.42%,-2.05%
CC(C(=O)NCc1cccc(Cl)c1)n1ccc2cc(S(=O)(=O)N3CCCC3)ccc21 (stereo not drawn),2.67%,0.218%,3.04%,-0.494%,1.65%
COCCCn1c(=O)c(C(=O)NC2CC2)nc2cccnc21,-3.31%,1.16%,3.49%,-3.28%,1.16%
CCC(C)NC(=O)c1ccc2c(=O)n(C)c3nnc(SCC(N)=O)n3c2c1 (stereo not drawn),6.3%,0%,7.36%,5%,4.45%
C=C1C[C@@]23CC[C@H]4[C@@](C)(CCC[C@@]4(C)C(=O)O)[C@@H]2CC[C@]1(O)C3,2.39%,9.3%,3.84%,-4.47%,6.42%
